Values marked as one replicate rest on one cluster of the flow cell; about a third of the high ones do not repeat.
These sequences were tested on ATP (assay: switch fluorescence ratio, 500 uM ATP over buffer (Cy3 cluster intensity, sum of 5 cycles each) (fold (ratio)); higher = stronger signal-on switching upon ATP binding; sequences stand for … in TCGTCGGCAGCGTCAGATGTGTATAAGAGACAGTTTTTTTTTTTTTTTTTTTTTTTTT…TC). Conditions: aptamer strand: ATP DNA aptamer (quencher-CACCTGGGGGAGTATTGCGGAGGAAGG + anchor), 100 nM annealed; ATP concentration: 500 uM; one replicate.
In short: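 Cy3-labelled switching-strand clusters on a modified Illumina MiSeq flow-cell were annealed to 100 nM quencher-labelled ATP aptamer, imaged in selection buffer, then imaged after 15 min with 500 uM ATP at 22 °C. Five buffer/ATP cycles ran, with NaOH stripping and re-annealing between them. The fluorescence ratio is summed target-cycle over summed buffer-cycle Cy3 intensity per cluster, averaged per switch-domain sequence. Clusters outside 100-1000 RFU were excluded.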
Sequence AACGATGCGG has a switch fluorescence ratio of 1.03.
In the case of AACGATGTGG, the switch fluorescence ratio is reported as 1.
Sequence AACGATTTCA has a switch fluorescence ratio of 0.952.
For AACGCCCCCG, the switch fluorescence ratio was 1.12.
AACGCCTGGA gave a switch fluorescence ratio of 0.987.
Work on AACGCGCCAC yielded a switch fluorescence ratio of 1.52.
AACGCGGTC was tested, and the switch fluorescence ratio was 1.15.
Sequence AACGCGTCGT has a switch fluorescence ratio of 1.14.
Sequence AACGCGTGCG has a switch fluorescence ratio of 1.24.
In the case of AACGCTGGGA, the switch fluorescence ratio is reported as 0.991.
In the case of AACGGCTAGA, the switch fluorescence ratio is reported as 0.95.
AACGGCTTGT was tested, and the switch fluorescence ratio was 0.986.
With AACGGGCTAT the switch fluorescence ratio was 1.03.
Work on AACGGGGCCA yielded a switch fluorescence ratio of 1.02.
For AACGGGGTA, the switch fluorescence ratio was 1.02.
AACGTACAAG gave a switch fluorescence ratio of 1.41.
Work on AACGTATATG yielded a switch fluorescence ratio of 1.06.
AACGTATCCT showed a switch fluorescence ratio of 1.07.
AACGTATCTA was tested, and the switch fluorescence ratio was 1.1.
For AACGTCAGTG, the switch fluorescence ratio was 0.971.
Work on AACGTCCTCG yielded a switch fluorescence ratio of 0.994.
For AACGTCGGAG, the switch fluorescence ratio was 1.01.
AACGTGAGTC was tested, and the switch fluorescence ratio was 0.969.
Sequence AACGTGGACG has a switch fluorescence ratio of 0.943.
Work on AACGTTAGTA yielded a switch fluorescence ratio of 0.948.
With AACGTTATTA the switch fluorescence ratio was 1.07.
AACGTTCGAC showed a switch fluorescence ratio of 1.12.
AACGTTCTCT was tested, and the switch fluorescence ratio was 1.05.
AACTAAACGC showed a switch fluorescence ratio of 1.06.
Sequence AACTAAAGGA has a switch fluorescence ratio of 1.01.
With AACTAAATAT the switch fluorescence ratio was 1.02.
With AACTAAGAG the switch fluorescence ratio was 1.02.
In the case of AACTAATCAT, the switch fluorescence ratio is reported as 1.01.
AACTACCGCG showed a switch fluorescence ratio of 1.16.
AACTAGACAT was tested, and the switch fluorescence ratio was 1.01.
AACTAGCGAC showed a switch fluorescence ratio of 1.11.
AACTATCACG gave a switch fluorescence ratio of 1.14.
In the case of AACTATCCTT, the switch fluorescence ratio is reported as 0.959.
AACTCAGGGA showed a switch fluorescence ratio of 1.02.
In the case of AACTCATGGA, the switch fluorescence ratio is reported as 0.995.
With AACTCGCTCC the switch fluorescence ratio was 1.1.
AACTCTCGGA was tested, and the switch fluorescence ratio was 0.994.
For AACTGAGACA, the switch fluorescence ratio was 1.03.
AACTGATCGG showed a switch fluorescence ratio of 0.933.
Work on AACTGATGCG yielded a switch fluorescence ratio of 0.992.
AACTGCCGGT gave a switch fluorescence ratio of 1.03.
AACTGGGCGT was tested, and the switch fluorescence ratio was 1.03.
For AACTGTGCAG, the switch fluorescence ratio was 0.969.
AACTTAAACG gave a switch fluorescence ratio of 0.979.
In the case of AACTTACGTT, the switch fluorescence ratio is reported as 1.31.
With AACTTATCA the switch fluorescence ratio was 0.977.
For AACTTATTCC, the switch fluorescence ratio was 1.16.
Sequence AACTTCAGT has a switch fluorescence ratio of 1.03.
AACTTCTCAT gave a switch fluorescence ratio of 1.02.
Work on AACTTGTTAA yielded a switch fluorescence ratio of 0.944.
AACTTTCTTC was tested, and the switch fluorescence ratio was 1.03.
In the case of AACTTTTCGA, the switch fluorescence ratio is reported as 1.04.
AACTTTTCTG showed a switch fluorescence ratio of 1.04.
In the case of AAGAAAAGTG, the switch fluorescence ratio is reported as 0.931.
In the case of AAGAACAGGT, the switch fluorescence ratio is reported as 1.05.
AAGAAGGCGC showed a switch fluorescence ratio of 1.01.
For AAGAATATCG, the switch fluorescence ratio was 1.01.
With AAGAATCTTG the switch fluorescence ratio was 1.01.
Work on AAGAATGGTA yielded a switch fluorescence ratio of 1.02.
For AAGAATTAAA, the switch fluorescence ratio was 1.01.
AAGACCAGCG gave a switch fluorescence ratio of 1.01.
In the case of AAGACGGTAA, the switch fluorescence ratio is reported as 1.03.
AAGAGACTTG was tested, and the switch fluorescence ratio was 1.08.
Work on AAGAGAGCTT yielded a switch fluorescence ratio of 1.
For AAGAGCGTCC, the switch fluorescence ratio was 1.01.
With AAGAGGCTGT the switch fluorescence ratio was 1.01.
AAGAGGGGA gave a switch fluorescence ratio of 0.986.
In the case of AAGAGGGGC, the switch fluorescence ratio is reported as 0.906.
AAGAGGTTAA gave a switch fluorescence ratio of 0.965.
For AAGAGTAGCA, the switch fluorescence ratio was 0.972.
Work on AAGAGTATGC yielded a switch fluorescence ratio of 0.878.
Work on AAGAGTCAGT yielded a switch fluorescence ratio of 0.971.
Sequence AAGAGTTACG has a switch fluorescence ratio of 0.925.
Sequence AAGATAACCG has a switch fluorescence ratio of 1.03.
AAGATATCTT gave a switch fluorescence ratio of 0.959.
AAGATCAATC was tested, and the switch fluorescence ratio was 1.04.
AAGATCTATA gave a switch fluorescence ratio of 1.
For AAGATCTCCG, the switch fluorescence ratio was 1.03.
Work on AAGATGAATA yielded a switch fluorescence ratio of 0.997.
For AAGATGAGGA, the switch fluorescence ratio was 0.962.
AAGATGGTT gave a switch fluorescence ratio of 0.977.
AAGATGTGTA showed a switch fluorescence ratio of 0.989.
With AAGATTGGAT the switch fluorescence ratio was 1.01.
Sequence AAGCAACATG has a switch fluorescence ratio of 1.02.
AAGCAACTGC was tested, and the switch fluorescence ratio was 1.11.
Sequence AAGCAAGCGC has a switch fluorescence ratio of 1.09.
AAGCAGGACC gave a switch fluorescence ratio of 1.12.
For AAGCAGGT, the switch fluorescence ratio was 1.07.
For AAGCATATG, the switch fluorescence ratio was 1.02.
In the case of AAGCATTTAT, the switch fluorescence ratio is reported as 0.95.
Sequence AAGCCATCCA has a switch fluorescence ratio of 1.04.
AAGCCCAGTC was tested, and the switch fluorescence ratio was 1.11.
AAGCCCGTTG was tested, and the switch fluorescence ratio was 0.951.
Sequence AAGCCGGGAA has a switch fluorescence ratio of 0.999.
AAGCCGGTGT gave a switch fluorescence ratio of 1.02.
For AAGCCTCGCT, the switch fluorescence ratio was 0.974.
With AAGCCTTAG the switch fluorescence ratio was 1.04.
Work on AAGCGAAAAC yielded a switch fluorescence ratio of 1.1.
For AAGCGAAGTT, the switch fluorescence ratio was 0.993.
With AAGCGAATCT the switch fluorescence ratio was 1.03.
In the case of AAGCGCGGCA, the switch fluorescence ratio is reported as 0.976.
With AAGCGCGGGG the switch fluorescence ratio was 1.04.
Work on AAGCGGCGCA yielded a switch fluorescence ratio of 1.03.
With AAGCGGGCCA the switch fluorescence ratio was 1.08.
AAGCGTCTTC gave a switch fluorescence ratio of 1.04.
For AAGCTAAACG, the switch fluorescence ratio was 1.
Work on AAGCTACTTG yielded a switch fluorescence ratio of 1.1.
With AAGCTATG the switch fluorescence ratio was 1.01.
With AAGCTATTCG the switch fluorescence ratio was 0.977.
Sequence AAGCTCAGTC has a switch fluorescence ratio of 1.04.
With AAGCTCATGT the switch fluorescence ratio was 0.994.
With AAGCTCGGAG the switch fluorescence ratio was 1.02.
Sequence AAGCTGAGTA has a switch fluorescence ratio of 1.01.
In the case of AAGCTGTCAC, the switch fluorescence ratio is reported as 1.06.
AAGCTGTGTA was tested, and the switch fluorescence ratio was 1.01.
Work on AAGCTTGTAC yielded a switch fluorescence ratio of 1.8.
With AAGCTTGTAT the switch fluorescence ratio was 1.03.
Work on AAGCTTTGGT yielded a switch fluorescence ratio of 0.98.
In the case of AAGGAACTTC, the switch fluorescence ratio is reported as 1.06.
AAGGAATCTT gave a switch fluorescence ratio of 0.989.
With AAGGACCTCT the switch fluorescence ratio was 0.979.
AAGGACTGCA was tested, and the switch fluorescence ratio was 1.05.
AAGGAGATGT showed a switch fluorescence ratio of 1.01.
For AAGGAGCGGA, the switch fluorescence ratio was 1.05.
AAGGATATC showed a switch fluorescence ratio of 1.
For AAGGCAAAAG, the switch fluorescence ratio was 0.97.
AAGGCAAACG gave a switch fluorescence ratio of 0.973.
AAGGCAGCCA gave a switch fluorescence ratio of 0.991.
AAGGCCAACA was tested, and the switch fluorescence ratio was 1.02.
With AAGGCCCTTT the switch fluorescence ratio was 1.02.
Sequence AAGGCCGCCG has a switch fluorescence ratio of 0.98.
AAGGCCGGGC gave a switch fluorescence ratio of 0.996.
Sequence AAGGGACCCG has a switch fluorescence ratio of 1.06.
AAGGGATTTC was tested, and the switch fluorescence ratio was 1.01.
In the case of AAGGGCCAAC, the switch fluorescence ratio is reported as 1.
With AAGGGCTTGT the switch fluorescence ratio was 1.02.
With AAGGGGAA the switch fluorescence ratio was 1.
Sequence AAGGGGAGTA has a switch fluorescence ratio of 0.928.
In the case of AAGGGTGACT, the switch fluorescence ratio is reported as 0.974.
With AAGGGTGGTT the switch fluorescence ratio was 0.993.
With AAGGGTTACA the switch fluorescence ratio was 0.991.
For AAGGTAACGT, the switch fluorescence ratio was 0.999.
AAGGTAGGAC gave a switch fluorescence ratio of 0.992.
Sequence AAGGTCGTAC has a switch fluorescence ratio of 0.982.
For AAGGTGAACT, the switch fluorescence ratio was 1.04.
In the case of AAGGTTAAAA, the switch fluorescence ratio is reported as 0.998.
With AAGTAAACAG the switch fluorescence ratio was 0.984.
With AAGTAACATT the switch fluorescence ratio was 1.05.
AAGTAGCAAA was tested, and the switch fluorescence ratio was 1.25.
Work on AAGTATCAAG yielded a switch fluorescence ratio of 0.952.
In the case of AAGTATCGGC, the switch fluorescence ratio is reported as 0.984.
With AAGTATTTGG the switch fluorescence ratio was 0.977.
In the case of AAGTCCTTAT, the switch fluorescence ratio is reported as 0.977.
AAGTCGCTAT showed a switch fluorescence ratio of 0.971.
Sequence AAGTCGCTGG has a switch fluorescence ratio of 1.01.
With AAGTCGGCTC the switch fluorescence ratio was 1.03.
Sequence AAGTCTTCAG has a switch fluorescence ratio of 0.973.
For AAGTCTTTTT, the switch fluorescence ratio was 0.935.
AAGTGAGACA was tested, and the switch fluorescence ratio was 1.04.
With AAGTGCCAG the switch fluorescence ratio was 1.
In the case of AAGTGCGTCT, the switch fluorescence ratio is reported as 1.07.
AAGTGGGGAA showed a switch fluorescence ratio of 1.06.
AAGTGTCTAT was tested, and the switch fluorescence ratio was 0.988.
With AAGTTAAATG the switch fluorescence ratio was 0.964.
In the case of AAGTTAAGTA, the switch fluorescence ratio is reported as 1.05.
Work on AAGTTATCAG yielded a switch fluorescence ratio of 1.01.
For AAGTTCATCA, the switch fluorescence ratio was 1.01.
AAGTTCCGTA showed a switch fluorescence ratio of 0.991.
In the case of AAGTTCGAAG, the switch fluorescence ratio is reported as 0.943.
Work on AAGTTGTCTA yielded a switch fluorescence ratio of 0.973.
For AATAAAACGT, the switch fluorescence ratio was 1.07.
AATAAACGCA was tested, and the switch fluorescence ratio was 1.12.
AATAAAGTAG was tested, and the switch fluorescence ratio was 0.962.
For AATAAAGTGC, the switch fluorescence ratio was 0.974.
AATAAATGTT gave a switch fluorescence ratio of 1.02.
Work on AATAAGCGTA yielded a switch fluorescence ratio of 0.978.
For AATAAGTCGG, the switch fluorescence ratio was 1.
Work on AATACAGGC yielded a switch fluorescence ratio of 1.17.
Work on AATACATAGA yielded a switch fluorescence ratio of 0.966.
AATACCATTC showed a switch fluorescence ratio of 0.975.
In the case of AATACCCAGG, the switch fluorescence ratio is reported as 2.66.
Sequence AATACCGCTC has a switch fluorescence ratio of 1.34.
Work on AATACGGTTT yielded a switch fluorescence ratio of 1.07.
In the case of AATACTCG, the switch fluorescence ratio is reported as 1.13.
AATAGCCGGT was tested, and the switch fluorescence ratio was 1.01.
AATAGCGCGT showed a switch fluorescence ratio of 1.09.
AATAGCGGGT showed a switch fluorescence ratio of 0.951.
AATAGCTATG was tested, and the switch fluorescence ratio was 1.
With AATAGCTGGA the switch fluorescence ratio was 1.01.
AATAGGCTAT gave a switch fluorescence ratio of 1.
In the case of AATAGGGACG, the switch fluorescence ratio is reported as 1.09.
Sequence AATAGTAGTT has a switch fluorescence ratio of 1.03.
For AATAGTATGC, the switch fluorescence ratio was 0.998.
For AATAGTCTCA, the switch fluorescence ratio was 1.01.
AATAGTGGGA gave a switch fluorescence ratio of 0.976.
AATAGTTAAC gave a switch fluorescence ratio of 0.99.

— the supplement of paper PMC10126150
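Note: ATP exposure 15 min at 22 °C before imaging.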
